# Test results as given in PubChem BioAssay AID540317 (National Center for Advancing Translational Sciences (NCATS), 2011).
# Out of some 390,000 compounds screened, about 2,200 (0.56%) were called active. The inconclusive results got no clear call from the source; some entries with a clear call stand among them for comparison. Calls come from the whole dose curve; as a rule, active = well fitted inhibition curve with a large enough effect; inconclusive = small, poorly fitted or top-dose-only effect; inactive = no such curve, though single readings can be large or run the other way. Potencies beside an inconclusive call are fits to weak or partial responses and may not hold up.
# Target: Chromobox protein homolog 1 (Homo sapiens) (UniProt P83916)
# UniProt P83916, sequence (P83916 whole entry, looked up): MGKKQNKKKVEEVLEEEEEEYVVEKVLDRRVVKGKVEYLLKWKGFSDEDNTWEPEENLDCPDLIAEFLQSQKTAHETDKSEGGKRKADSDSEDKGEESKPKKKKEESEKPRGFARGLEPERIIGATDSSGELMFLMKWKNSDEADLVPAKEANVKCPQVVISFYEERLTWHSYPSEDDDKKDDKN
# Test: HTS for Inhibitors of HP1-beta Chromodomain Interactions with Methylated Histone Tails; note: nearly all actives have a fitted effect of over 70% in size
# Details: AlphaScreen HP1-beta / biotin-H3K9me3 peptide binding; series mostly up to 114 µM; activity change, negative = inhibition: at the top concentration
# In short: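 HP1-beta protein (50 nM final) preincubated 30 min at room temperature with biotinylated H3(1-18)K9me3 peptide (50 nM) in PBS pH 7.4, 0.01% Tween-20, then compound added for 30 min. AlphaScreen streptavidin donor/nickel chelate acceptor beads (10 ug/mL final), 30 min dark, luminescence read.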
# Potency is the fitted concentration of half-maximal effect; tags give direction and shape of the fitted curve.
Compound,Potency,"activity change, negative = inhibition"
CCOC(=O)c1cc(NC(=O)c2cccnc2)ccn1,"inconclusive: 89.1 µM [inhibitor, single point]",–
CCOc1cccc(C(=O)NC(=S)Nc2ccc3c(c2)OCCO3)c1,"inconclusive: 31.6 µM [inhibitor, partial curve]",–
CCOC(=O)c1ccc(NC(=O)c2c(NCc3cc(OC)c(OC)cc3OC)sc3c2CCCC3)cc1,"inconclusive: 39.8 µM [inhibitor, partial curve, poor fit]",–
O=C(Cc1cccc2ccccc12)NC(NC(=S)Nc1ccccc1Cl)C(Cl)(Cl)Cl (stereo not drawn),"inconclusive: 7.08 µM [inhibitor, full curve]",–
CCN(CC)CCCOc1ccc(C)cc1Br,"inconclusive: 56.2 µM [inhibitor, partial curve]",–
CC(OC(=O)CCC1CCCC1)C(=O)Nc1ccccc1[N+](=O)[O-] (stereo not drawn),"inconclusive: 50.1 µM [inhibitor, partial curve]",–
Oc1ccc2ccccc2c1C=Nc1cc(C(F)(F)F)ccc1N1CCCC1,"inconclusive: 25.1 µM [inhibitor, partial curve]",–
NS(=O)(=O)c1cc(C(=O)O)cc(N2CCCC2)c1Oc1ccccc1,–,inactive: 9.71%
COc1cc(Cl)ccc1NC(=S)N(CCCN1CCOCC1)Cc1cn(C)c2ccccc12,"inconclusive: 15.8 µM [inhibitor, full curve]",–
N=c1c(S(=O)(=O)c2ccccc2)cc2c(=O)n3ccccc3nc2n1C1CCCCC1,"inconclusive: 39.8 µM [inhibitor, single point]",–
Cc1cnc(NC(=O)COc2ccccc2Cl)s1,–,inactive: 9.89%
O=C(Cc1ccccc1)NC(NNc1ccccc1)(C(F)(F)F)C(F)(F)F,"inconclusive: 39.8 µM [inhibitor, single point]",–
CCOc1ccc(S(=O)(=O)NCC(c2ccc(N(C)C)cc2)N2CCc3ccccc32)cc1 (stereo not drawn),"inconclusive: 15.8 µM [inhibitor, full curve]",–
O=C(NC1CCCCC1)C(c1ccc(O)cc1)N(C(=O)c1cnccn1)c1cccc(F)c1 (stereo not drawn),–,inactive: 21.9%
Cn1c(N)c(C(=O)Nc2c(Cl)cccc2Cl)sc1=S,–,inactive: -22.4%
O=C1CCCN1CCCNCC(O)c1ccccc1 (stereo not drawn),"inconclusive: 56.2 µM [inhibitor, partial curve, poor fit]",–
CCc1ccc(NC(=O)Cn2cnc3sc(C)c(S(=O)(=O)N4CCN(c5ccccc5OC)CC4)c3c2=O)cc1,–,inactive: 35.7%
COc1c(Br)cc(Br)cc1/C=N/NC(=O)c1cccnc1,–,inactive: 49.6%
Cc1nn(C)c(Cl)c1C(=O)NCC(=O)Nc1ccc(C(C)C)cc1,–,inactive: 37.2%
CCOC(=O)c1cnc2ccc(Cl)cc2c1Nc1ccc(N2CCOCC2)cc1,"inconclusive: 17.8 µM [inhibitor, full curve]",–
CCCCNCc1cccn1-c1ccccc1,"inconclusive: 79.4 µM [inhibitor, partial curve, poor fit]",–
Cc1ccc(CNC(=O)c2ccc(-c3nc(CS(=O)(=O)c4ccc(C)cc4)c(C)o3)cc2)cc1,–,inactive: 8.66%
Cc1ccccc1NC(=S)NC(=O)/C=C/c1ccco1,"inconclusive: 79.4 µM [inhibitor, partial curve]",–
COc1cccc(NC(=O)CCP(C)(=O)O)c1,–,inactive: 68.8%

Compound,Potency,"activity change, negative = inhibition"
CC(O)(CS(=O)(=O)Cc1ccccc1)c1ccc(Cl)cc1 (stereo not drawn),–,inactive: 35.2%
CC1=C/C(=C/N(C)c2ccccc2)C(=O)S1,"inconclusive: 35.5 µM [inhibitor, partial curve]",–
CC(C)C(=O)NC(=S)Nc1nnn(C)n1,"inconclusive: 89.1 µM [inhibitor, single point]",–
COc1ccc(C2(c3ccc(OC)cc3)NC(=O)N(CC(=O)Nc3ccc(N4CCOCC4)cc3)C2=O)cc1,"inconclusive: 44.7 µM [inhibitor, partial curve]",–
Cc1sc(-c2ccccn2)nc1OC(=O)c1ccc(F)cc1F,–,inactive: 29.8%
Cc1ccc(C)c(-c2csc(N/N=C/c3ccco3)n2)c1,"inconclusive: 17.8 µM [inhibitor, partial curve, poor fit]",–
COc1ccc2[nH]cc(CCCN3C(=O)c4ccccc4C3=O)c2c1,"inconclusive: 70.8 µM [inhibitor, single point]",–
Cc1c(NC(=O)C(C)OC(=O)c2cc(Cl)ccc2O)c(=O)n(-c2ccccc2)n1C (stereo not drawn),–,inactive: 24.6%
O=C(COc1ccccc1[N+](=O)[O-])N/N=C/c1ccc(O)c([N+](=O)[O-])c1,"inconclusive: 70.8 µM [inhibitor, partial curve, poor fit]",–
C[C@H](NC(=O)c1cc2c(cn1)[nH]c1ccccc12)C(=O)O,active: 28.2 µM,–
OCC1CCCN(Cc2ccc(-c3ccccc3)cc2)C1 (stereo not drawn),"inconclusive: 10 µM [inhibitor, full curve]",–
COc1ccc(OC)c(CN2CCN(C(=O)c3ccc(F)cc3)CC2)c1,"inconclusive: 20 µM [inhibitor, full curve]",–
Fc1ccc(/C=N/n2c(-c3cccs3)n[nH]c2=S)cc1,–,inactive: -25.3%
O=C1OC(C(=O)Nc2nccs2)Cc2ccccc21 (stereo not drawn),–,inactive: 17.7%
O=C(c1ccc(F)cc1)n1cc(C(=S)N2CCOCC2)c2ccccc21,"inconclusive: 15.8 µM [inhibitor, full curve, poor fit]",–
COc1cccc(C(=O)N2CCN(C3CCN(Cc4ccccc4)CC3)CC2)c1OC,active: 22.4 µM,–
C/C(=N\Nc1nc2ccccc2[nH]1)c1ccc2c(c1)OCO2,"inconclusive: 50.1 µM [inhibitor, partial curve]",–
Brc1ccccc1C1=Nn2c(nnc2-c2ccccc2)SC1,–,inactive: -26.1%
O=C(C1CCN(Cc2cc(Cl)ccc2O)CC1)N1CCN(Cc2ccccc2)CC1,"inconclusive: 39.8 µM [inhibitor, partial curve, poor fit]",–
O=C(COC(=O)CNC(=O)c1cccc([N+](=O)[O-])c1)NCc1ccco1,–,inactive: 32.7%
COCC(O)CNc1ccccc1 (stereo not drawn),–,inactive: 36.8%
CCN(CC)S(=O)(=O)c1ccc(-c2csc(C)n2)cc1,–,inactive: 22.3%
Cc1csc(=NC(=O)c2ccccc2)n1Cc1ccco1,–,inactive: -5.11%
CCOC(=O)C1=C(N)n2c(s/c(=C/c3ccco3)c2=O)=C(C(=O)OC)C1c1ccco1 (stereo not drawn),"inconclusive: 35.5 µM [inhibitor, single point]",–
